The campaign covered roughly 48,000 compounds. About 120 (0.25%) were called active. Roughly 4% stayed inconclusive and do not appear here. Calls follow the shape of the dose curve; as a rule, active = well fitted activation curve with a large enough effect; inconclusive = small, poorly fitted or top-dose-only effect, or another doubt; inactive = no such curve, though single readings can be large or run the other way. The list shows a part of the results.

This assay is described as follows: Primary qHTS for Identification of Small Molecule Activators of Huntingtin-Antisense Promoter Activity. Also: nearly all actives have a fitted effect of over 55% in size. Particulars: HEK293 HTT-AS promoter firefly luciferase reporter, 24 h; series mostly up to 57.5 µM; activity change, positive = activation: at the top concentration. The procedure, abridged:
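HEK293 luciferase promoter-reporter cells (2,500/well) plated 24 h, then compounds added at up to 57.5 uM final for 24 h at 37 °C. Firefly luminescence by Dual-Glo, normalized to vehicle (0%) and zero RLU (-100%).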
Regarding `CCOC(=O)c1ccccc1NC(=O)N1CCN2CCCCC2C1` (configuration not stated), the “activity change, positive = activation” value was inactive: -8.15%.

Regarding `Cc1ccc(C)c(N2CCN(c3ncnc4onc(C)c34)CC2)c1`, the “activity change, positive = activation” value is inactive: -15.7%.

For `CC(=O)Nc1nonc1-c1nnc(SCC(=O)Nc2cc(C)ccc2C)n1-c1ccccc1`, the “activity change, positive = activation” value was inactive: -17.8%.

As for `Cc1cccc(CC(=O)NC2CC(=O)N(c3cccc(F)c3)C2)c1` (configuration not stated), the “activity change, positive = activation” value is inactive: 2.98%.

As to `Cc1cc(N2CCCCC2)nc2ccc(NC(=O)c3ccc(F)cc3)cc12`, the “activity change, positive = activation” value is inactive: -24.2%.

For the molecule `CCOC(=O)c1c(NC(=O)CSc2cn(CCNC(=O)c3ccc(OCC)cc3)c3ccccc23)sc2c1CCCC2`, the “activity change, positive = activation” value is inactive: -41.1%.

Consider `COc1ccc(OC)c(NC(=O)C2CCN(S(=O)(=O)c3ccc(C)cc3)CC2)c1`, for which the “activity change, positive = activation” value was inactive: -3.73%.

As for `COCCNC(=O)CSc1nc(-c2ccc(F)cc2)[nH]c1-c1ccc(Cl)cc1`, the “activity change, positive = activation” value is inactive: -21.7%.

For the molecule `CC(CNC(=O)Cn1ncc2c3ccccc3n(Cc3cccc(Cl)c3)c2c1=O)c1ccccc1` (configuration not stated), the “activity change, positive = activation” value is inactive: -11.7%.

Regarding `Nc1nc(=S)c2[nH]cnc2[nH]1`, the activity change, positive = activation entry is “inactive”.

As for `CCOc1ccc(C(=O)Nc2ccc(S(=O)(=O)N(Cc3ccccc3)c3ccccc3)cc2)cc1`, the “activity change, positive = activation” value was inactive: -94.5%.

As for `COc1ccc(OC)c(C2CC(=O)N(c3cccc(C)c3)C3=C2C(=O)OC3)c1` (configuration not stated), the “activity change, positive = activation” value is inactive: -20.2%.

As for `O=C(COc1ccccc1)Nc1ccc(OCc2cc(=O)n3ccsc3n2)cc1`, the “activity change, positive = activation” value was inactive: 4.33%.

In the case of `Cc1cc(F)ccc1Nc1nc2ccccc2n2nnnc12`, the “activity change, positive = activation” value was inactive: -1.57%.

Consider `CN(C(=O)CSc1nc2ncccc2o1)c1ccc(F)cc1`, for which the “activity change, positive = activation” value was inactive: -7.59%.

Turning to `O=C(CSc1nc2cc3ccccc3cc2[nH]1)Nc1cccc(C(F)(F)F)c1`, the activity change, positive = activation was inactive: 7.44% [at 11.5 µM, percent change from vehicle, -100% = no light].

As to `CC(C)CCNC(=O)C(=O)Nc1c2c(nn1-c1ccccc1)CS(=O)(=O)C2`, the “activity change, positive = activation” value was inactive: -4.13%.

`CNS(=O)(=O)c1cn(CC(=O)Nc2ccc(OC)c(Cl)c2)cc1S(=O)(=O)NC`: the “activity change, positive = activation” value is inactive: -9.36%.

As for `COc1ccc(NC(=O)C(=O)NCCc2ccccc2)cc1OC`, the “activity change, positive = activation” value was inactive: -5.62%.

With `CC(C)CCNC(=O)CN1C(=O)COc2ccc(S(=O)(=O)N3CCOCC3)cc21`, the “activity change, positive = activation” value was inactive: -6.08%.

Take `CC(C)c1ccc(NC(=O)C2CCCN(S(=O)(=O)c3ccc(Br)s3)C2)cc1` (configuration not stated): the “activity change, positive = activation” value was inactive: -17.8%.

With `COc1cccc(C(=O)Nc2ccccc2C(=O)OCc2cc(=O)n3nc(C)sc3n2)c1`, the “activity change, positive = activation” value was inactive: -1.64%.

For `CCOC(=O)c1cccc(NC(=O)c2cc3c(Cl)nc4ccc(C)cc4c3s2)c1`, the “activity change, positive = activation” value is inactive: -12.4%.

Take `COc1ccc(-n2cc(-c3ccccc3)c3c(SC(C)C(C)=O)ncnc32)cc1` (configuration not stated): the “activity change, positive = activation” value is inactive: -21.8%.

In the case of `CCc1ccc(NS(=O)(=O)c2ccc3[nH]cc(C(=O)NC4CCCC4)c(=O)c3c2)cc1`, the “activity change, positive = activation” value is inactive: -29%.

Consider `Fc1ccc(-c2cc(-c3nc(-c4cccc(Cl)c4)no3)[nH]n2)cc1`, for which the “activity change, positive = activation” value was inactive: -3.5%.

Regarding `c1ccc(CNc2nc(NCc3ccccc3)c3ccccc3n2)cc1`, the “activity change, positive = activation” value was inactive: -67%.

In the case of `COc1cc(OC)c(OC)cc1CN1CCc2nc(N3CCN(c4ncccn4)CC3)ncc2C1`, the “activity change, positive = activation” value was inactive: -28.9%.

Turning to `COc1ccccc1CNC(=O)CSc1ncc2c(n1)-c1ccccc1N(Cc1ccc(C)cc1)S2(=O)=O`, the “activity change, positive = activation” value was inactive: -8.46%.

Take `COc1ccc(-c2noc(C3CC(=O)N(c4ccc(C)c(F)c4)C3)n2)c(OC)c1` (configuration not stated): the “activity change, positive = activation” value was inactive: -12.1%.

Take `CCN1CCN(C(=O)c2ccc3c(c2)N(Cc2cccc(Cl)c2)C(=O)c2ccccc2S3(=O)=O)CC1`: the “activity change, positive = activation” value is inactive: -9.33%.

For the molecule `CCc1nnc(SCc2ccc(F)cc2Cl)c2cc3sccc3n12`, the “activity change, positive = activation” value is inactive: -2.43%.

As for `Cc1ccc(C)c(NC(=O)C(C)n2c(=O)cc(C(F)(F)F)c3c(C)nn(C)c32)c1` (configuration not stated), the “activity change, positive = activation” value is inactive: -7.32%.

`CCc1ccc(CNC(=O)c2ccc3c(c2)nc2n3CCOC2)cc1`: the “activity change, positive = activation” value is inactive: -7.66%.

Take `CCOc1ccc(Nc2oc(/C=C/c3ccc(F)cc3)nc2C#N)cc1`: the “activity change, positive = activation” value was inactive: 4.81%.

Regarding `COc1ccc(CNc2nc3c(S(=O)(=O)c4ccccc4)nnn3c3ccc(Cl)cc23)cc1`, the “activity change, positive = activation” value was inactive: 13.4%.

With `Cc1ccc(NC(=O)C(=O)NCC(c2cccnc2)N2CCN(C)CC2)cc1C` (configuration not stated), the “activity change, positive = activation” value was inactive: -12.9%.

With `Cc1ccc(OCC(=O)Nc2ccc(C(=O)OCc3cc(=O)n4nc(C5CC5)sc4n3)cc2)cc1`, the “activity change, positive = activation” value was inactive: -22.3%.

On to `COc1ccc(NC(=O)c2oc3c(c2C)-c2nn(Cc4c(F)cccc4Cl)cc2CC3)c(OC)c1`, for which the “activity change, positive = activation” value was inactive: -15.9%.

As to `CCc1ccc(NC(=O)c2cc3ccccn3n2)cc1`, the activity change, positive = activation was inactive: 28.5% [at 11.5 µM, percent change from vehicle, -100% = no light].

On to `O=C(CSc1nc(=O)[nH]c2c1CCCC2)Nc1cc(C(F)(F)F)ccc1Cl`, for which the “activity change, positive = activation” value is inactive: -41.1%.

Take `Fc1ccccc1CNCCCSc1nnnn1-c1ccccc1`: the “activity change, positive = activation” value is inactive: -3%.

On to `Cc1cc(C)c2c(CC(=O)Nc3nnc(C(C)C)s3)coc2c1`, for which the “activity change, positive = activation” value was inactive: -11.4%.

Take `CCOC(=O)c1ccccc1NC(=O)CSc1ccc(-c2sc(-c3ccccc3)nc2C)nn1`: the “activity change, positive = activation” value is inactive: -6.05%.

As to `Cc1cc(C)n(-c2nc3ccccc3nc2Nc2cccc(C(F)(F)F)c2)n1`, the “activity change, positive = activation” value was inactive: 3.87%.

Consider `COc1ccc(OC)c(-c2nc(Nc3ccccc3C)sc2CC(=O)O)c1`, for which the “activity change, positive = activation” value was inactive: -23.1%.

In the case of `COc1ccc(C2C(C(=O)Nc3ccccc3)=C(C)Nc3nc(-c4ccccc4)nn32)cc1OC` (configuration not stated), the “activity change, positive = activation” value was inactive: -27.1%.
